Article PMC4336329 (PLoS ONE, 2015)
The whole screen tested about 310,000 compounds, of which about 14,000 (4.5%) showed an effect of 50% or more. Effects have a minus sign here. The list shows a part of the results.

target: human ether-à-go-go-related gene (hERG) potassium channel (human, UniProt Q12809); assay: primary screen, population patch clamp on CHO cells stably expressing hERG
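Also: peak tail current of the secondary pulse compared with the same well before compound.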

human ether-à-go-go-related gene (hERG) potassium channel, sequence (Q12809 whole entry, looked up): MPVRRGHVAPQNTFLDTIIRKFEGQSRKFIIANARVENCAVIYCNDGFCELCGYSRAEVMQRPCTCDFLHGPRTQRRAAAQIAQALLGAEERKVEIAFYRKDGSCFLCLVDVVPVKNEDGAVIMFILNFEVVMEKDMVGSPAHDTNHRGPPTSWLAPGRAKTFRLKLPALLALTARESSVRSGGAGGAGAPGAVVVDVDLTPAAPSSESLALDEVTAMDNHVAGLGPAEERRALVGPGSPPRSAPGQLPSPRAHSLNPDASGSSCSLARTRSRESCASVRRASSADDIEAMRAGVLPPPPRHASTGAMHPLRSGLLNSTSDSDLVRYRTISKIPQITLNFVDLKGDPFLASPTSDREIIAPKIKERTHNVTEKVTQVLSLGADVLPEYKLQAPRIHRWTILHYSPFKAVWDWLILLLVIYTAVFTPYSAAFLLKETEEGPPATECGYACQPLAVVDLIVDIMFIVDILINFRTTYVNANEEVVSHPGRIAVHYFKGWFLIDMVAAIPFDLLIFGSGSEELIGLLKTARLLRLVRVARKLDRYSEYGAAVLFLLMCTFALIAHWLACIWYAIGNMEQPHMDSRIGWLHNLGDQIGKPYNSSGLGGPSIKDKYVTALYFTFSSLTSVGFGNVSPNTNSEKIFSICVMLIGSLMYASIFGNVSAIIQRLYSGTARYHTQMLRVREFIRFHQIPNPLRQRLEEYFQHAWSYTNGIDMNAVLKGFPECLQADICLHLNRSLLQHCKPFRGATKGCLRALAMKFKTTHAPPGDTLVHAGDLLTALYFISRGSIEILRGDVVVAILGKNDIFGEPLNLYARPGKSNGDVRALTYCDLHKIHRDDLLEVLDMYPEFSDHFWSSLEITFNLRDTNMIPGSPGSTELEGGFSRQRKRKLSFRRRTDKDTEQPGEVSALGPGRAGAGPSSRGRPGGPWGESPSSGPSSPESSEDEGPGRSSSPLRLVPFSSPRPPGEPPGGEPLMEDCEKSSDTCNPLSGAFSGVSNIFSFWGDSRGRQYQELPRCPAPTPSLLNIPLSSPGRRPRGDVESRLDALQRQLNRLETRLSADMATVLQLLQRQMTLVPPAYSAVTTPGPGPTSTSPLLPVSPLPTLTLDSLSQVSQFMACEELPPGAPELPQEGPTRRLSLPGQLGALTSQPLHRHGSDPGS

Q: `O=C(On1c(-c2ccccc2)nc2ccccc2c1=O)c1ccco1` was tested. Which “hERG current change (%, negative = inhibition) at 10uM” value did it give?
A: 17.5%

Q: Which “hERG current change (%, negative = inhibition) at 10uM” value does the source give for `CC(C)C(=O)Nc1ccc(Nc2ccccc2)cc1` here?
A: -12%

Q: How did the “hERG current change (%, negative = inhibition) at 10uM” value turn out when `O=S(=O)(NCc1ccccc1)c1ccc(-c2cnc(C3CC3)o2)cc1` was run?
A: 16.5%

Q: Which “hERG current change (%, negative = inhibition) at 10uM” value does the source give for `CCOC(=O)C1CCCN(C2=NC(=O)/C(=C/c3ccc(OC)cc3OC)S2)C1` (centres unmarked) here?
A: -52.6%

Q: For `CCc1ccccc1NC(=O)c1cc(S(=O)(=O)N2CCCC2)c[nH]1`, which “hERG current change (%, negative = inhibition) at 10uM” value is on record?
A: 9.5%

Q: With `CCOc1ccc(/C(O)=C2/C(=O)C(=O)N(CCN(CC)CC)C2c2cccs2)cc1` (centres unmarked) as the compound, how does the “hERG current change (%, negative = inhibition) at 10uM” value read?
A: 8.37%

Q: How did the “hERG current change (%, negative = inhibition) at 10uM” value turn out when `COc1cccc(NC(=O)C(C)OC(=O)CCCNC(=O)c2ccc(Cl)cc2)c1` (centres unmarked) was run?
A: -14.6%

Q: `CCc1cc(C(=O)c2ccc(OC)cc2)c(NC(=O)CN2CCN(C)CC2)s1` was tested. Which “hERG current change (%, negative = inhibition) at 10uM” value did it give?
A: -71.3%

Q: How did the “hERG current change (%, negative = inhibition) at 10uM” value turn out when `O=C(Nc1ccccc1N1CCN(c2ccc(F)cc2)CC1)C12CC3CC(CC(C3)C1)C2` was run?
A: -1.22%

Q: For `O=C(CSc1nnc(COc2ccccc2)n1Cc1ccco1)NCc1ccco1`, which “hERG current change (%, negative = inhibition) at 10uM” value is on record?
A: 0.149%

Q: With `CCN(CC)C(=O)CSc1ncnc2c1cnn2-c1ccccc1` as the compound, how does the “hERG current change (%, negative = inhibition) at 10uM” value read?
A: -14.2%

Q: `CC(C)(C)n1ncc2c(=O)n(CC(=O)OCc3ccccc3)cnc21` was tested. Which “hERG current change (%, negative = inhibition) at 10uM” value did it give?
A: 0.341%

Q: `CCCCC(=O)Nc1ccc(C(=O)Nc2ccc(OC)cc2[N+](=O)[O-])cc1` was tested. Which “hERG current change (%, negative = inhibition) at 10uM” value did it give?
A: -8.04%

Q: How did the “hERG current change (%, negative = inhibition) at 10uM” value turn out when `C/C(=N\NC(=O)c1c(-c2ccccc2Cl)noc1C)c1cccc(NC(=O)C(C)C)c1` was run?
A: -29.3%

Q: With `O=C(c1ccco1)N1CCn2cccc2C1c1ccccc1` (centres unmarked) as the compound, how does the “hERG current change (%, negative = inhibition) at 10uM” value read?
A: -16.4%

Q: How did the “hERG current change (%, negative = inhibition) at 10uM” value turn out when `O=C(Nc1ccccc1Cl)C1CC(=O)N(c2ccccc2)C1` (centres unmarked) was run?
A: -0.459%

Q: `CCOc1c(Br)cc(C(=O)OCC(=O)N2CCc3ccccc3C2)cc1OC` was tested. Which “hERG current change (%, negative = inhibition) at 10uM” value did it give?
A: -0.0262%

Q: With `O=C(NC1(C(F)(F)F)C(=O)Nc2c1c(=O)[nH]c(=O)n2-c1ccccc1)c1cccnc1` (centres unmarked) as the compound, how does the “hERG current change (%, negative = inhibition) at 10uM” value read?
A: 22.2%

Q: For `O=C(CSc1nnc(-c2cccs2)o1)OC1CCCCC1`, which “hERG current change (%, negative = inhibition) at 10uM” value is on record?
A: -21.1%

Q: For `O=C(CSc1nnc(-c2ccco2)n1Cc1ccccc1)c1ccccc1`, which “hERG current change (%, negative = inhibition) at 10uM” value is on record?
A: -18.4%

Q: How did the “hERG current change (%, negative = inhibition) at 10uM” value turn out when `Cc1nc(NC(=S)NC(=O)c2cccs2)sc1C(=O)N(C)C` was run?
A: 4.43%

Q: Which “hERG current change (%, negative = inhibition) at 10uM” value does the source give for `CCOC(=O)C1CCCN(S(=O)(=O)c2ccc(-n3cnnn3)c(C)c2)C1` (centres unmarked) here?
A: -11.3%

Q: With `COCc1[nH][nH]c(=O)c1/C=N/N1CCOCC1` as the compound, how does the “hERG current change (%, negative = inhibition) at 10uM” value read?
A: 15.1%

Q: `Nc1cc2sc(-c3ccc(C(=O)O)cc3)nc2cc1Cl` was tested. Which “hERG current change (%, negative = inhibition) at 10uM” value did it give?
A: 7.11%

Q: Which “hERG current change (%, negative = inhibition) at 10uM” value does the source give for `O=C1CN(S(=O)(=O)c2cccc(C(=O)O)c2)c2ccccc2N1` here?
A: 17.5%

Q: `O=C(CN1CCCCCC1)Nc1ccc([N+](=O)[O-])cc1Cl` was tested. Which “hERG current change (%, negative = inhibition) at 10uM” value did it give?
A: -5.5%

Q: How did the “hERG current change (%, negative = inhibition) at 10uM” value turn out when `COC(=O)Cn1c(=NC(=O)c2ccc([N+](=O)[O-])s2)sc2cc(Br)ccc21` was run?
A: 13.1%

Q: `C=CCOc1ccc(C2NC(=S)NC(c3ccccc3)=C2C(C)=O)cc1OC` (centres unmarked) was tested. Which “hERG current change (%, negative = inhibition) at 10uM” value did it give?
A: -1.7%

Q: For `COc1ccccc1C(=O)OCC(=O)NC(=O)NC1CCCC1`, which “hERG current change (%, negative = inhibition) at 10uM” value is on record?
A: 7.52%

Q: How did the “hERG current change (%, negative = inhibition) at 10uM” value turn out when `CN(CC(=O)Nc1ccc(F)c(F)c1F)C(=O)/C=C/c1ccc(Cl)cc1` was run?
A: -5.54%

Q: How did the “hERG current change (%, negative = inhibition) at 10uM” value turn out when `C/C(CC(O)(/C=N/O)c1ccccc1)=N\O` (centres unmarked) was run?
A: 17.8%

Q: With `O=C(c1ccccc1S(=O)(=O)NCc1ccccc1)N1CCCC1` as the compound, how does the “hERG current change (%, negative = inhibition) at 10uM” value read?
A: -4.43%

Q: For `CCN(CC)S(=O)(=O)c1ccc(C(=O)OCC(=O)NC2CCCC2)cc1`, which “hERG current change (%, negative = inhibition) at 10uM” value is on record?
A: 21.1%

Q: How did the “hERG current change (%, negative = inhibition) at 10uM” value turn out when `O=C(c1ccccc1)N1N=C(c2ccccc2)CC1c1ccccc1[N+](=O)[O-]` (centres unmarked) was run?
A: 13.4%

Q: How did the “hERG current change (%, negative = inhibition) at 10uM” value turn out when `COc1cc(C=C(c2nc3ccccc3s2)c2nc3ccccc3s2)cc(OC)c1O` was run?
A: 5.65%

Q: With `COc1cccc(CNS(=O)(=O)c2c(C(=O)N3CCCC3)c(C)n(C)c2C)c1` as the compound, how does the “hERG current change (%, negative = inhibition) at 10uM” value read?
A: 13.7%

Q: Which “hERG current change (%, negative = inhibition) at 10uM” value does the source give for `CCOC(=O)CSC1=Nc2ccccc2C2=NC(CC(=O)NCc3ccc4c(c3)OCO4)C(=O)N12` (centres unmarked) here?
A: -26.9%

Q: With `C/C=C/C(=O)Nc1cccc(C2=NOC3(C2)C[C@H](C(N)=O)N(C(=O)/C=C/C)C3)c1` (some centres unmarked) as the compound, how does the “hERG current change (%, negative = inhibition) at 10uM” value read?
A: 1.04%

Q: Which “hERG current change (%, negative = inhibition) at 10uM” value does the source give for `Cc1nn(C(C)C(=O)O)c(C)c1[N+](=O)[O-]` (centres unmarked) here?
A: 12.1%

Q: With `O=C(Nc1cccc(Cl)c1)O/N=C\c1ccncc1` as the compound, how does the “hERG current change (%, negative = inhibition) at 10uM” value read?
A: 5.05%

Q: `CCCCN(CC)CCNC(=O)C1CCN(S(=O)(=O)c2cccc3nsnc23)CC1` was tested. Which “hERG current change (%, negative = inhibition) at 10uM” value did it give?
A: -11%

Q: How did the “hERG current change (%, negative = inhibition) at 10uM” value turn out when `COC(=O)c1cnc(SC)nc1C` was run?
A: -6.57%

Q: Which “hERG current change (%, negative = inhibition) at 10uM” value does the source give for `C=CCNC(=O)[C@@H]1CSC2c3ccc(OC)c(OC)c3C(=O)N21` (some centres unmarked) here?
A: 16.4%

Q: `C=C(C)CNC(=S)N/N=C/c1c(F)cccc1F` was tested. Which “hERG current change (%, negative = inhibition) at 10uM” value did it give?
A: -1.01%

Q: Which “hERG current change (%, negative = inhibition) at 10uM” value does the source give for `O=C(Nc1ccncc1)c1cc(S(=O)(=O)N2CCN(c3ccccc3)CC2)ccc1Cl` here?
A: -48.7%

Q: For `CCOC(=O)c1cc(C(C)(C)C)oc1CN`, which “hERG current change (%, negative = inhibition) at 10uM” value is on record?
A: 12.1%

Q: Which “hERG current change (%, negative = inhibition) at 10uM” value does the source give for `CC(=O)c1ccc(NC(=O)C(C)OC(=O)CCN=C2NS(=O)(=O)c3ccccc32)cc1` (centres unmarked) here?
A: 12.4%

Q: How did the “hERG current change (%, negative = inhibition) at 10uM” value turn out when `O=C(O)CCC(=O)Nc1ccc(-n2ccc(C(F)(F)F)n2)cc1` was run?
A: 19.1%

Q: `CCOC(=O)c1cnc(-n2nc(C)cc2C)nc1NNc1nc(-c2ccccc2)cc(-c2ccccc2)n1` was tested. Which “hERG current change (%, negative = inhibition) at 10uM” value did it give?
A: -4.64%

Q: For `CC(C)c1ccc(/C=N/n2c(-c3ccccc3)n[nH]c2=S)cc1`, which “hERG current change (%, negative = inhibition) at 10uM” value is on record?
A: 14.6%

Q: How did the “hERG current change (%, negative = inhibition) at 10uM” value turn out when `CC(C)N(CCO)C(=O)CCc1nnc(CCCc2ccccc2)o1` was run?
A: 9.35%

Q: With `Cc1ccc(NC2CCCN(C(=O)CCc3ccncc3)C2)cc1C` (centres unmarked) as the compound, how does the “hERG current change (%, negative = inhibition) at 10uM” value read?
A: -24.5%

Q: For `Cc1nc(C)c(Cc2ccccc2Cl)c(=O)[nH]1`, which “hERG current change (%, negative = inhibition) at 10uM” value is on record?
A: 0.737%

Q: Which “hERG current change (%, negative = inhibition) at 10uM” value does the source give for `O=C(CSc1nnc(Cc2cccs2)n1-c1ccccc1)NC1CCCCC1` here?
A: -62.5%

Q: How did the “hERG current change (%, negative = inhibition) at 10uM” value turn out when `O=C(NCCCN1CCOCC1)c1ccco1` was run?
A: 10.9%

Q: `O=C(CSc1nc2ccccc2c(=O)[nH]1)Nc1ccccc1N1CCOCC1` was tested. Which “hERG current change (%, negative = inhibition) at 10uM” value did it give?
A: 6.66%
